# Source: the supplement of paper PMC11417369
# Some of the results follow.
# System: PfAP2-HC AP2 domain (GST-tagged)
# Experiment: gcPBM binding intensity (ln(normalized median fluorescence intensity)); higher = stronger DNA binding
# Method in brief: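 Probes on an Agilent 4 × 180k array were primer-extended, double-stranded and 36 bp long, taken from intergenic genomic regions, with negative controls added. GST-tagged P. falciparum DNA-binding domains from E. coli, about 25 μg on average, were applied to the array for 1 h in 1× PBS containing 1% milk, 0.2 mg/ml BSA, 0.5% salmon testes DNA and 0.03% Triton X-100. Binding intensity, obtained after Alexa488 anti-GST antibody detection and a 488 nm scan, is the highest Masliner-normalised natural-log median intensity across replicate spots of either probe orientation.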
row,Sequence,gcPBM binding intensity (ln)
1,AGTTATAAAATATTTGCATGTAAATATATTATCTAT [TGCATGCA_site1015],9.45
2,ACTTTTATTATTTATATACACACTTGCTGAAATGTT [CACACA_site3637],10.1
3,ACAATGAGGATATATACACACATACATTAAAAAAAT [CACACA_site6955],10.2
4,TTTTTCTGTTCTTTTTGTACTTAAATATATTTATTT [XGTACX_site5658],9.82
5,ATGTGTGTATTTTATAGTACAGTTACAAGCATTTTT [XGTACX_site6351],9.89
6,AAAAAAGAAAAAAGGACACACATAAATATACACCCG [CACACA_site5590],10.2
7,AGAATATAATTTTTATGTACATATATTAAATATATT [XGTACX_site8521],9.63
8,CACAAAAATAAACACACACACATATATATATATATA [CACACA_site4704],10.4
9,AATTTTCTACAAATGTGTACTAAATAAAATATTACT [XGTACX_site7175],9.57
10,TAAGTTCGAATTACTTAAATATTGATTTTTTTAAAA [TGCATGCA_negctrl_site114],9.19
11,AAGAAAAGCAAACAAGTGCATAATAACAAAAAAAAT [GTGCAC_site9725],9.89
12,TATTTATTTATAAACACACAAATATTTTTATTTATA [CACACA_site6889],9.55
13,TCATAAAATATGTTTTGTACATAAAATTAAACAAGT [XGTACX_site1763],9.59
14,AAATAAGAGAAAATATGTACATACATATATTTATAT [XGTACX_site6210],9.87
15,AAATATAAATAAAGATGTACATTATCTATATGTGAT [XGTACX_site4863],9.73
16,ATATAATTTGTTATACTAACTTTTTAATTATTGATA [GTGCAC_negctrl_site443],9.55
17,AATACGTTTATATATTGTACGTTATATATATATATA [XGTACX_site7452],9.66
18,ATCCGTGTCTGAAATACACACATGATAATGTGAATG [CACACA_site8210],9.67
19,ATGGAAACAAGCATCACACATATAAATATATATATA [CACACA_site4979],9.72

row,Sequence,gcPBM binding intensity (ln)
1,AACGAAAGAAAAAAAGCACACACAGTTTTGAGCAAT [CACACA_site8658],10.2
2,ACCATGATAAATGTATTAAATGTATCATAACCTATG [CACACA_negctrl_site513],9.63
3,AGGAATTTATAAAATTGTACTTTTAATTACCTACAG [XGTACX_site3153],9.61
4,CAAACATTTTAATGTACACACACCCACAGACAAACA [CACACA_site5522],10.2
5,TTCTTTTTGAAATATTAACACACATTTTGTTAATTA [CACACA_site9337],9.78
6,ATATATTTTATACATACACACATATATATATTTTTT [CACACA_site3940],9.9
7,TGATTAAATCAAGAAAGTACAAAATGAAATATATAA [XGTACX_site4319],9.54
8,AAAATAATTTTATAGTTGCACTATATCGTATACAAT,9.71
9,TAAAGTGTAAAATTCACACACATATAAATAAATATA [CACACA_site6765],9.93
10,TAATATGAAGATGGCAGTACTCTAGTCAATTTTTAC [XGTACX_site5375],9.68
11,AATTCAAAGAAAAACTGTACGTGTAGCAAACATCCT [XGTACX_site599],9.69
12,AAAATATATAAATATACATGCATAATTAATAGTATA [TGCATGCA_site804],9.78
13,TACAAAAGCTATAACATTCACCACATTATAAAAATA [CACACA_negctrl_site1112],9.78
14,TTTAAAAAAAAAAATACACACATAAAAGTTTTCAAA [CACACA_site6471],9.71
15,TTTTCATTAAGATACTTATAATAGTTTATTAGTAAA [CACACA_negctrl_site586],9.32
16,TTACAAATATTATAATGTACCCATTTTTTTTGCCTT [XGTACX_site6612],9.57
17,ATATCATCTTCTCTATCATTTTTTTTTTTTTTTTTT [CACACA_negctrl_site1220],9.6
18,TGAGATAAATGTGGTAGTACATTTTTTTTATATATA [XGTACX_site1918],9.48
19,CAAAAATTACCCTTGTGTACACATATATTATATGTA [XGTACX_site1124],9.88

row,Sequence,gcPBM binding intensity (ln)
1,ATAAAAAAATCAGACACACACACGTAAACACATACA [CACACA_site5529],10.9
2,CTTTTTTTTTTTTTTTGTCCGTATGAGGGACCTATA [XGTACX_site8839],9.45
3,TCCATTGTCACCTTTTGTACTTAAATTTTTTCCTCC [XGTACX_site1573],9.6
4,ATGTTATAATTTAGTGTGCACATATTAAGAGGAACA,10.1
5,ATATATATTTATATATGTACATATTTTTGTGTATTT [XGTACX_site1183],9.93
6,ATATATATATATATATGTACATAATAATTTTATAAA [XGTACX_site5105],9.74
7,AATAATAATAGAAACACACACACATTTTTAATAATA [CACACA_site1217],10.5
8,TTAATTATGTTTTGGTGTACAATAAATTGAATAGAT [XGTACX_site3306],9.53
9,CTACTTAATATTTGTACACACATATTTAACCTACTA [CACACA_site5725],10.2
10,TATACATACCCACCCACACACAAAAAAAAAAAAAAA [CACACA_site4632],10.2
11,TATACTCATAAATACACACACATATATATATATATA [CACACA_site5822],9.99
12,GGGGGCTTTTATAAAAGTACAAAATGAATAAAAATT [XGTACX_site2393],9.41
13,TCTTTATTATTCGCCACACACATATATATATATATA [CACACA_site3077],10.1
14,TATATATATAAAAATACACACATGAATGAATATATA [CACACA_site419],9.87
15,AAAATATAATATAATGCACACATAAAAAAAAAATCA [CACACA_site7922],10.1
16,TATCTGTAAATGGACACACACATATATATATATATA [CACACA_site5926],9.99
17,ATATTGTGTTATAAATGTACACAATTTCCTTTCATA [XGTACX_site7481],9.63
18,ATATATGTTCCTTTTACACACATAATCTTTTTTTTA [CACACA_site2661],9.99
19,TTTTTAAAAATATACACACACAGATATTATATATAT [CACACA_site786],10.4
